Source: paper PMC6919601, “Identification of Plasmodium dipeptidyl aminopeptidase allosteric inhibitors by high throughput screening” (PLoS ONE, 2019)
Hit rate of the full screen: of about 110,000 compounds, about 230 (0.21%) showed an effect of 50% or more. Some of the results follow.

The compounds below were run against DPAP1 (Plasmodium falciparum, UniProt Q8IIJ9) (assay: primary screen, percent inhibition; read by cleavage of a fluorogenic dipeptide substrate; higher = more effect of the substance).
Sequence of DPAP1 (Q8IIJ9 whole entry, looked up): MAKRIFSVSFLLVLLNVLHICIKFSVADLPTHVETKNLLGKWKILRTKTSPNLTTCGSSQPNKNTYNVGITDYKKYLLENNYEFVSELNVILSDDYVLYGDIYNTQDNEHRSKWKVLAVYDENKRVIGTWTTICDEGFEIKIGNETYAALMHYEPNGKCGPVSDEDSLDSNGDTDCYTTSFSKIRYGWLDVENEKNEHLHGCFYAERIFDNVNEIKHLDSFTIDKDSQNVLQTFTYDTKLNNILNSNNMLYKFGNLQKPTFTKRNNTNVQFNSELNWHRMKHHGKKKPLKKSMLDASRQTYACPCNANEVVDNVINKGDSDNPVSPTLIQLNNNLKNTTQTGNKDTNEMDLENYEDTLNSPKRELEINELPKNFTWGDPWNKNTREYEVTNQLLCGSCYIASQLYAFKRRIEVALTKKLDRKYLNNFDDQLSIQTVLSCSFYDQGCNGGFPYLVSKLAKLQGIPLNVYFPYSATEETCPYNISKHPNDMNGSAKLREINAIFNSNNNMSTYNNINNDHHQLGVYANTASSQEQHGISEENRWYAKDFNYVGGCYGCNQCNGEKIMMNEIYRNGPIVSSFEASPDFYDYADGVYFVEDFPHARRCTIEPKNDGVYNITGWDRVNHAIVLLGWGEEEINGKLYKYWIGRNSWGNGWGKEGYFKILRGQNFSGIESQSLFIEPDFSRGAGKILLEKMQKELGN
Design: species or system P. falciparum D10 trophozoite lysates; single well
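Also: 30 min substrate incubation versus DMSO and 10 µM JCP410 controls.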

First: CCOc1ccc(-c2nc(CSCC(=O)NC(C)c3ccccc3)c(C)o2)cc1 (centres unmarked)
Second: Cc1ccc(OC(C)C(=O)Nc2nc3ccccc3s2)cc1 (centres unmarked)
The “% Inhibition @ 10 uM” value of the first is higher: 2.35% for the first, -8.28% for the second.

First: Sc1nnc2n(Cc3ccccc3)c3ccccc3n12
Second: Brc1cnc(OCc2ccccc2)nc1OCc1ccccc1
The “% Inhibition @ 10 uM” value of the first is higher: 9.05% for the first, 2.55% for the second.

Compared with `Cc1ccccc1Cn1nc(C)c(NC(=O)c2cc(C3CC3)on2)c1C`, `CCc1ccc(-n2nc(C)c3c(C(=O)NCc4ccccc4)cc(C)nc32)cc1` is lower in “% Inhibition @ 10 uM” value: 0.0221% for the first, -3.94% for the second.

First: O=C(/C=C/c1ccco1)NCc1ccc2c(c1)OCO2
Second: O=C(NCc1ccc2c(c1)OCO2)C1CCCN(c2nnc(-n3cccc3)s2)C1 (centres unmarked)
The “% Inhibition @ 10 uM” value of the first is lower: -5.03% for the first, 4.33% for the second.

Going from `CCOc1cc(CN2CCN(c3ccc(OC)cc3)CC2)ccc1O` to `CCCC(=O)Nc1ccc(N2CCN(S(C)(=O)=O)CC2)cc1`, the “% Inhibition @ 10 uM” value rises from -0.0404% to 4.44%.

Going from `Cc1nn(-c2ccc(F)cc2)c(-n2cccc2)c1C(=O)NCCCOC(C)C` to `CC(C)OCCCNC(=O)c1cc(-c2ccc3c(c2)OCO3)nc2ccccc12`, the “% Inhibition @ 10 uM” value rises from -1.43% to 1.39%.

Compared with `CC1(c2ccccc2)NCCN2C(=O)CSC21` (centres unmarked), `O=C1N=C(N2CCCC2)S/C1=C\c1ccccc1Cl` is higher in “% Inhibition @ 10 uM” value: -8.21% for the first, -6.67% for the second.

Going from `O=C(CN1Cc2ccccc2C1=O)NCCN1CCOCC1` to `Cn1c(=O)[nH]c(=O)c2c1nc(NCCCN1CCOCC1)n2CCCc1ccccc1`, the “% Inhibition @ 10 uM” value rises from -5.25% to -3.28%.

Going from `CC(=O)Nc1ccc(NC(=O)C2C3CCC(C3)C2C(=O)O)cc1` (centres unmarked) to `Cc1ccc(NC(=O)CNS(=O)(=O)c2ccccc2)cc1C`, the “% Inhibition @ 10 uM” value falls from 4.08% to -4.39%.

Going from `COc1ccc(S(=O)(=O)N2CCSC2c2ccc(C)cc2)cc1` (centres unmarked) to `COc1ccc(CNC(=O)c2ccccc2-c2ccccc2)cc1`, the “% Inhibition @ 10 uM” value rises from -3.45% to 2.6%.

Compared with `COc1ccc2c(c1)CC/C2=N\OC(=O)c1ccccc1C`, `COc1ccc(C(=O)c2coc3ccc(O)cc23)cc1` is lower in “% Inhibition @ 10 uM” value: 4.74% for the first, -2.75% for the second.

Compared with `COCCNC(=O)c1nnc(Cc2ccc(OC)c(OC)c2)o1`, `COc1ccc(Br)cc1CNCCSc1nnnn1C` is higher in “% Inhibition @ 10 uM” value: -5.63% for the first, 0.00706% for the second.

First: C/C(O)=C\C(C)=N\c1ccc(-c2cnc(-c3ccccc3)o2)cc1
Second: Cc1[nH]c2ccccc2c1-c1csc(-c2ccc(O)cc2)n1
The “% Inhibition @ 10 uM” value of the first is lower: -6.99% for the first, -0.469% for the second.

Compared with `Cc1c(C(=O)NCc2ccc3c(c2)OCO3)sc2nc3n(c(=O)c12)CCCCC3`, `Cc1nc(Oc2ccc3c(c2)OCO3)c2c3c(sc2n1)CCCC3` is higher in “% Inhibition @ 10 uM” value: -3.49% for the first, -1.07% for the second.

Going from `O=C(Nc1ccc(I)cc1)c1ccc(Br)o1` to `Cc1ccc(NC(=O)CSc2ncn(-c3ccccc3)n2)cc1`, the “% Inhibition @ 10 uM” value rises from -3.82% to 2.01%.

Going from `Cc1ccc2oc(=O)c3cc(C(=O)N4CCN(C(=O)c5ccco5)CC4)sc3c2c1` to `O=C(Nc1cccc(NC(=O)c2ccco2)c1)c1cnccn1`, the “% Inhibition @ 10 uM” value rises from -2.45% to 2.42%.

First: CCOCC(=O)Nc1cccc2cccnc12
Second: O=C(NC(c1ccccc1Cl)c1ccc2cccnc2c1O)c1ccccc1 (centres unmarked)
The “% Inhibition @ 10 uM” value of the first is lower: -0.545% for the first, 13.3% for the second.

Compared with `CCCN(CCC)C(=O)Cn1c(=O)n(CC(=O)NCCc2ccccc2)c(=O)c2sccc21`, `Cc1ccccc1CSCCNC(=O)CN1C(=O)c2ccccc2S1(=O)=O` is lower in “% Inhibition @ 10 uM” value: -0.591% for the first, -5.1% for the second.

Going from `C=CCn1c(N)c(S(=O)(=O)c2ccccc2)c2nc3ccccc3nc21` to `Nc1nc(NCc2ccccc2F)nn1-c1ccccc1`, the “% Inhibition @ 10 uM” value falls from 4.54% to -9.33%.

Compared with `Cc1ccc(NC(=O)CSc2nc(C)cc(C)c2C#N)c(Br)c1`, `CC1(C)CC(=O)C2=C(C1)OC(N)=C(C#N)C21C(=O)Nc2ccc(Br)cc21` (centres unmarked) is higher in “% Inhibition @ 10 uM” value: -2.64% for the first, 3.01% for the second.

Compared with `CC(CNC(=O)c1cc2sccc2n1C)c1ccccc1` (centres unmarked), `CC(=O)Nc1cc(C(F)(F)F)ccc1OCCOc1ccccc1` is higher in “% Inhibition @ 10 uM” value: -8.58% for the first, -2.09% for the second.

First: O=C(CCc1nc2ncccc2c(=O)n1Cc1ccc(F)cc1)N1CCC(Cc2ccccc2)CC1
Second: O=C(CCn1c(=O)c2cccn2c2cccnc21)NCCC1=CCCCC1
The “% Inhibition @ 10 uM” value of the first is higher: 0.953% for the first, -2.15% for the second.

Compared with `Cc1cc(Cl)ccc1OCC(=O)N1CCCC1`, `CC1CCCCC1NC(=O)CN1CCN(Cc2ccc(Cl)cc2)C1=O` (centres unmarked) is lower in “% Inhibition @ 10 uM” value: -0.132% for the first, -2.99% for the second.

Going from `CCCOc1ccc(-c2nc(-c3ccc(Br)cc3)no2)cc1` to `CCOC(=O)C1=C(N)Oc2ccc3ccccc3c2C1c1ccc(Cl)cc1` (centres unmarked), the “% Inhibition @ 10 uM” value falls from -3.18% to -5.96%.

Going from `CSc1ccc(C2C3=C(CC(C)(C)CC3=O)OC3=C2C(=O)CC(C)(C)C3)cc1` to `CO/C(O)=C1\C(C)=NC2=C(C(=O)CC(C)(C)C2)C1c1ccccc1Cl` (centres unmarked), the “% Inhibition @ 10 uM” value falls from -2.07% to -4.01%.

Compared with `CCOC(=O)c1nnn(-c2nonc2-c2ccccc2)c1CSCCO`, `c1ccc(-c2cc3c(ccc4nonc43)[nH]2)cc1` is lower in “% Inhibition @ 10 uM” value: 1.08% for the first, -0.294% for the second.

First: Cc1ccc(N2C(=O)C3C(C2=O)C2(Br)c4ccccc4C3(Br)c3ccccc32)cc1 (centres unmarked)
Second: NS(=O)(=O)c1ccc(N2N=C(c3ccccc3)CC2c2ccccc2)cc1 (centres unmarked)
The “% Inhibition @ 10 uM” value of the first is higher: 1.64% for the first, -0.969% for the second.

First: O=P(c1ccccc1)(c1ccccc1)N1CCN(P(=O)(c2ccccc2)c2ccccc2)CC1
Second: CCCCCC1C(=O)CC(c2ccccc2)N(C)C1c1ccccc1 (centres unmarked)
The “% Inhibition @ 10 uM” value of the first is lower: -3.98% for the first, -3.35% for the second.

First: O=C(CCS(=O)(=O)c1ccc(Br)s1)NCc1ccccc1Cl
Second: O=C(O)c1ccc(CNS(=O)(=O)c2cccc3nsnc23)cc1
The “% Inhibition @ 10 uM” value of the first is lower: 1.37% for the first, 2.18% for the second.

Going from `Cc1cc(N2C(=O)C3CCC(c4ccccc4)CC3C2=O)no1` (centres unmarked) to `COc1ccccc1N1C(=O)CC(N2CCN(c3cccc(C(F)(F)F)c3)CC2)C1=O` (centres unmarked), the “% Inhibition @ 10 uM” value rises from 2.64% to 2.91%.

First: C=CC[C@@H]1Cc2ccccc2[C@@H](CCCC)N1
Second: CC1CC(C)CN(c2oc(/C=C/c3ccc(F)cc3)nc2C#N)C1 (centres unmarked)
The “% Inhibition @ 10 uM” value of the first is lower: -2.07% for the first, 0.895% for the second.

Compared with `CS(=O)(=O)C1=NN2C(=N)/C(=C\c3cn(Cc4ccccc4F)c4ccccc34)C(=O)N=C2S1`, `O=C(O)c1nnn(Cc2cccc(C(F)(F)F)c2)c1C(=O)O` is higher in “% Inhibition @ 10 uM” value: -5.27% for the first, -2.41% for the second.

With `COc1c2c(nc3occc13)C(CCC(C)(C)O)(OC)C(O)CC2` (centres unmarked) the “% Inhibition @ 10 uM” value was 3.9%.
